Laboratory results: PMC4740818
These are yes or no findings as the source states them, for the method shown. In cells and extracts the contact can be indirect. Some results given as binding are weak or reduced against the parent protein; the word gives no strength. Values belong to the substance of their own block, whether it stands above or below them.

The chains behind the UniProt entries cited, without tags or fusion partners. Where a name states a change or a piece, a line headed by the entry shows the natural chain unless it says otherwise. A line that says so, or that is headed by a name, gives the form on record, which may keep a tag or linker.
UniProt P38936: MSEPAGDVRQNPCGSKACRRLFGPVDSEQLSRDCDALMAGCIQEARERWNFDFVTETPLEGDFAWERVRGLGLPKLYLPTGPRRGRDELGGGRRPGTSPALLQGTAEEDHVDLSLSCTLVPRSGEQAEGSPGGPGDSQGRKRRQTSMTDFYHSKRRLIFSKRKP
UniProt Q13541: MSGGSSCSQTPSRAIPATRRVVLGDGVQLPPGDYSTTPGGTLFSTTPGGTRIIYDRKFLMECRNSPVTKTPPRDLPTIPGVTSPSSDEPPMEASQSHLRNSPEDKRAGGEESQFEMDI
4E-BP1-4A (phosphorylation-defective mutant), transfected in 293T cells (Q13541, form named): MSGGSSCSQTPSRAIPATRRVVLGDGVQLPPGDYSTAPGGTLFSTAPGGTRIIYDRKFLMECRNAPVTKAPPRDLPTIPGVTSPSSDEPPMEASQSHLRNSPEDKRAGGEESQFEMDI
4E-BP1-4A+LM-AA (eIF4E-binding-defective double mutant), Tet-On inducible in HCT116 cells (Q13541, form named): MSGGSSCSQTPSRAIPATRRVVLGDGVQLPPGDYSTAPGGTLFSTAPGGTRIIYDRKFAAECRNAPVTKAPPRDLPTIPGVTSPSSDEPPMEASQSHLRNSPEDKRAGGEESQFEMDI
UniProt P06730: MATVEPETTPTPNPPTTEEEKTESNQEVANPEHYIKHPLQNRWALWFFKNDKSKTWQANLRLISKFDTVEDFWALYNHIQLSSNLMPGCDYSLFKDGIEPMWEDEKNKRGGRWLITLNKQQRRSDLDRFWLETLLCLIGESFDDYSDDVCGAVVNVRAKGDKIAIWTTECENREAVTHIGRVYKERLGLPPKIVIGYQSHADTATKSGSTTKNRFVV
UniProt Q60876: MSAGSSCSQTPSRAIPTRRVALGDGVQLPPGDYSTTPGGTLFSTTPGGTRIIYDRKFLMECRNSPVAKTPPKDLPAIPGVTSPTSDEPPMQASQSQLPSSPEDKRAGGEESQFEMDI

How the values were obtained:
[1] = biological target: p21 (CDKN1A), endogenous in human cell lines U2OS and HCT116 (human (endogenous in U2OS and HCT116)) (UniProt P38936); assay: co-IP; HCT116 expressing Tet-On-inducible 4E-BP1 mutants, doxycycline (1 ug/ml) for 24 h; lysates immunoprecipitated with anti-p21 antibodies; immunoblot
[2] = biological target: T1, p21 (CDKN1A), endogenous in WT MEFs (mouse (endogenous in MEFs)) (UniProt P39689); assay: co-IP; p21 immunoprecipitated from WT MEFs treated with torin-1 (250 nM) for 6 hours in the presence of MG132 (25 uM); lysis buffer 50 mM Tris pH8, 1 mM EDTA, 120 mM NaCl, 1% NP40; western blot
T1 sequence: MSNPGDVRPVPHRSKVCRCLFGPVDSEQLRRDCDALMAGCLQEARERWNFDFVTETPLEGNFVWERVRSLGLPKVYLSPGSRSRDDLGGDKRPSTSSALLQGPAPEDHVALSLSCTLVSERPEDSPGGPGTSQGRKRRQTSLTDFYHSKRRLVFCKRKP

[3] = biological target: T1, p21 (CDKN1A), endogenous in WT MEFs (mouse (endogenous in MEFs)); assay: condition: only without torin-1 (untreated cells, 4E-BP1 phosphorylated by mTORC1); co-IP; p21 immunoprecipitated from untreated WT MEFs (no torin-1) in the presence of MG132 (25 uM); western blot
[4] = biological target: 4E-BP1-4A (phosphorylation-defective mutant), transfected in 293T cells (UniProt Q13541); assay: co-IP; 293T cells transfected with 4E-BP1-4A and flag-p21 plasmids; lysates immunoprecipitated with either anti-4E-BP1 or anti-flag antibodies after MG132 (25 uM) for 5 h; western blot
[5] = biological target: eIF4E (cells not told; Supplementary Fig. 3f and 4e) (UniProt P06730); assay: co-IP; eIF4E with endogenous 4E-BP1, 4E-BP1-4A and p21, in the presence of MG132 (Supplementary Fig. 4e); cells not given
[6] = biological target: p21 in p53-defective HCT116 cells (UniProt P38936); assay: co-IP; p53-defective HCT116 cells, in the presence of MG132 (Supplementary Fig. 4c)
[7] = biological target: T2, p21 in TSC2-depleted MEFs (UniProt P39689); assay: co-IP; TSC2-depleted MEFs, in the presence of MG132 (Supplementary Fig. 4d)
T2 sequence: T1 sequence

[8] = biological target: p21 (CDKN1A), endogenous in human cell lines U2OS and HCT116 (human (endogenous in U2OS and HCT116)) (UniProt P38936); assay: condition: only with rapamycin (4E-BP1 still phosphorylated); co-IP; endogenous proteins in U2OS and HCT116 cells with rapamycin, in the presence of MG132
[9] = biological target: exogenous human p21 expressed in 293T cells (human) (UniProt P38936); assay: condition: only with rapamycin (4E-BP1 still phosphorylated); co-IP; 293T cells expressing exogenous human p21, with rapamycin, in the presence of MG132
[10] = biological target: p21 (CDKN1A), endogenous in human cell lines U2OS and HCT116 (human (endogenous in U2OS and HCT116)) (UniProt P38936); assay: co-IP; endogenous proteins in U2OS and HCT116 cells with torin-1, in the presence of MG132
[11] = biological target: exogenous human p21 expressed in 293T cells (human) (UniProt P38936); assay: condition: only without torin-1 (untreated cells, 4E-BP1 phosphorylated by mTORC1); co-IP; 293T cells expressing exogenous human p21, without torin-1, in the presence of MG132
[12] = biological target: exogenous human p21 expressed in 293T cells (human) (UniProt P38936); assay: co-IP; 293T cells expressing exogenous human p21, with torin-1, in the presence of MG132
[13] = biological target: p21 (CDKN1A), endogenous in human cell lines U2OS and HCT116 (human (endogenous in U2OS and HCT116)) (UniProt P38936); assay: condition: only without torin-1 (untreated cells, 4E-BP1 phosphorylated by mTORC1); co-IP; endogenous proteins in U2OS and HCT116 cells without torin-1, in the presence of MG132
[14] = biological target: flag-p21 (human), pMT5-Flag-p21 (human) (UniProt P38936); assay: co-IP; 293T cells transfected with 4E-BP1-4A and flag-p21 plasmids; lysates immunoprecipitated with either anti-4E-BP1 or anti-flag antibodies after MG132 (25 uM) for 5 h; western blot

Substance: flag-p21 (human), pMT5-Flag-p21 (from UniProt P38936 1-164)
- binding [4]: binds

Substance: p21 (cells not told; Supplementary Fig. 4e) (from UniProt P38936 1-164)
- binding [5]: no binding

Substance: 4E-BP1-4A in TSC2-depleted MEFs (from UniProt Q13541 1-118)
- binding [7]: binds

Substance: 4E-BP1, endogenous in human cell lines U2OS, HCT116 and 293T (from UniProt Q13541 1-118)
- binding [8]: no binding
- binding [9]: no binding
- binding [10]: binds
- binding [11]: no binding
- binding [12]: binds
- binding [13]: no binding

Substance: 4E-BP1-4A (phosphorylation-defective mutant), transfected in 293T cells (from UniProt Q13541 1-118)
- binding [14]: binds

Next, values leading:

- binding [1]: binds
Substance: 4E-BP1-4A, Tet-On inducible in HCT116 cells (pCW57.1-4E-BP1-4A) (from UniProt Q13541 1-118)

- binding [2]: binds
- binding [3]: no binding
Substance: 4E-BP1, endogenous in WT MEFs (from UniProt Q60876 1-117)

- binding [6]: binds
Substance: 4E-BP1-4A in p53-defective HCT116 cells (from UniProt Q13541 1-118)

- binding [1]: binds
Substance: 4E-BP1-4A+LM-AA (eIF4E-binding-defective double mutant), Tet-On inducible in HCT116 cells (from UniProt Q13541 1-118)
